Tests used:
BCR-ABL1 H396P = BCR-ABL1 H396P (Homo sapiens, UniProt P00519, H396P); details: read-out: Kinase IC50 BCR-ABL1 H396P; [ATP] = 10 µM, n = 2
BCR-ABL1 T315I = BCR-ABL1 T315I (Homo sapiens, UniProt P00519, T315I); details: read-out: Kinase IC50 BCR-ABL1 T315I; [ATP] = 10 µM, n = 2
BCR-ABL1 M351T = BCR-ABL1 M351T (Homo sapiens, UniProt P00519, M351T); assay: biochemical

`COc1cc2c(Nc3cccc(OC)c3F)c(C#N)cnc2cc1OCCON1CCN(C)CC1` [13a, 4-((2-Fluoro-3-methoxyphenyl)amino)-6-methoxy-7-(2-((4-methylpiperazin-1-yl)oxy)ethoxy)quinoline-3-carbonitrile] was tested, and the IC50 (BCR-ABL1 H396P) was 15 nM, the IC50 (BCR-ABL1 T315I) was 445 nM and the IC50 (BCR-ABL1 M351T) was 24 nM.
Molecule `COc1cc(Nc2c(C#N)cnc3cc(OCCON4CCN(C)CC4)c(OC)cc23)ccc1Cl` [14a] has an IC50 (BCR-ABL1 H396P) of under 1 nM, an IC50 (BCR-ABL1 T315I) of 95 nM and an IC50 (BCR-ABL1 M351T) of 1 nM.
`COc1cc(Cl)ccc1Nc1c(C#N)cnc2cc(OCCON3CCN(C)CC3)c(OC)cc12` [15a, 4-((4-Chloro-2-methoxyphenyl)amino)-6-methoxy-7-(2-((4-methylpiperazin-1-yl)oxy)ethoxy)quinoline-3-carbonitrile] showed an IC50 (BCR-ABL1 H396P) of 7 nM, an IC50 (BCR-ABL1 T315I) of 220 nM and an IC50 (BCR-ABL1 M351T) of 13 nM.
Work on `COc1cc2c(Nc3cccc(OC)c3Cl)c(C#N)cnc2cc1OCCON1CCN(C)CC1` [12a, 4-((2-Chloro-3-methoxyphenyl)amino)-6-methoxy-7-(2-((4-methylpiperazin-1-yl)oxy)ethoxy)quinoline-3-carbonitrile] yielded an IC50 (BCR-ABL1 H396P) of 20 nM, an IC50 (BCR-ABL1 T315I) of 368 nM and an IC50 (BCR-ABL1 M351T) of 31 nM.
For `COc1cc(Nc2c(C#N)cnc3cc(OCCON4CCN(C)CC4)c(OC)cc23)c(F)cc1Cl` [8a, 4-((4-Chloro-2-fluoro-5-methoxyphenyl)amino)-6-methoxy-7-(2-((4-methylpiperazin-1-yl)oxy)ethoxy)quinoline-3-carbonitrile], the IC50 (BCR-ABL1 H396P) was under 1 nM, the IC50 (BCR-ABL1 T315I) was 166 nM and the IC50 (BCR-ABL1 M351T) was 2 nM.
